Over roughly 33,000 sequences, “E-score (-0.5 to 0.5)” has its median near -0.053; the highest 2% begin near 0.37. The list shows a part of the results.
biological target: Hap1 (UniProt P0CE41); assay: PBM E-score (8-mer binding enrichment) (E-score (-0.5 to 0.5)); higher = stronger / more preferred TF binding; most listed sequences are background and not binding sites; settings: protein concentration: 200 nM; construct: GST-DNA-binding domain
Procedure, shortened: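 Universal all-10-mer Agilent arrays, fresh or stripped once, were converted to double-stranded form by primer extension. GST-tagged yeast transcription factors from PURExpress in vitro transcription/translation, full-length or DNA-binding domain only, were applied at about 100-200 nM and detected with fluorescent anti-GST. After masliner normalisation, the Universal PBM Analysis Suite scored each ungapped eight-base word together with its reverse complement by E-score.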

Sequence of UniProt P0CE41 (P0CE41 whole entry, the tested form may be a part): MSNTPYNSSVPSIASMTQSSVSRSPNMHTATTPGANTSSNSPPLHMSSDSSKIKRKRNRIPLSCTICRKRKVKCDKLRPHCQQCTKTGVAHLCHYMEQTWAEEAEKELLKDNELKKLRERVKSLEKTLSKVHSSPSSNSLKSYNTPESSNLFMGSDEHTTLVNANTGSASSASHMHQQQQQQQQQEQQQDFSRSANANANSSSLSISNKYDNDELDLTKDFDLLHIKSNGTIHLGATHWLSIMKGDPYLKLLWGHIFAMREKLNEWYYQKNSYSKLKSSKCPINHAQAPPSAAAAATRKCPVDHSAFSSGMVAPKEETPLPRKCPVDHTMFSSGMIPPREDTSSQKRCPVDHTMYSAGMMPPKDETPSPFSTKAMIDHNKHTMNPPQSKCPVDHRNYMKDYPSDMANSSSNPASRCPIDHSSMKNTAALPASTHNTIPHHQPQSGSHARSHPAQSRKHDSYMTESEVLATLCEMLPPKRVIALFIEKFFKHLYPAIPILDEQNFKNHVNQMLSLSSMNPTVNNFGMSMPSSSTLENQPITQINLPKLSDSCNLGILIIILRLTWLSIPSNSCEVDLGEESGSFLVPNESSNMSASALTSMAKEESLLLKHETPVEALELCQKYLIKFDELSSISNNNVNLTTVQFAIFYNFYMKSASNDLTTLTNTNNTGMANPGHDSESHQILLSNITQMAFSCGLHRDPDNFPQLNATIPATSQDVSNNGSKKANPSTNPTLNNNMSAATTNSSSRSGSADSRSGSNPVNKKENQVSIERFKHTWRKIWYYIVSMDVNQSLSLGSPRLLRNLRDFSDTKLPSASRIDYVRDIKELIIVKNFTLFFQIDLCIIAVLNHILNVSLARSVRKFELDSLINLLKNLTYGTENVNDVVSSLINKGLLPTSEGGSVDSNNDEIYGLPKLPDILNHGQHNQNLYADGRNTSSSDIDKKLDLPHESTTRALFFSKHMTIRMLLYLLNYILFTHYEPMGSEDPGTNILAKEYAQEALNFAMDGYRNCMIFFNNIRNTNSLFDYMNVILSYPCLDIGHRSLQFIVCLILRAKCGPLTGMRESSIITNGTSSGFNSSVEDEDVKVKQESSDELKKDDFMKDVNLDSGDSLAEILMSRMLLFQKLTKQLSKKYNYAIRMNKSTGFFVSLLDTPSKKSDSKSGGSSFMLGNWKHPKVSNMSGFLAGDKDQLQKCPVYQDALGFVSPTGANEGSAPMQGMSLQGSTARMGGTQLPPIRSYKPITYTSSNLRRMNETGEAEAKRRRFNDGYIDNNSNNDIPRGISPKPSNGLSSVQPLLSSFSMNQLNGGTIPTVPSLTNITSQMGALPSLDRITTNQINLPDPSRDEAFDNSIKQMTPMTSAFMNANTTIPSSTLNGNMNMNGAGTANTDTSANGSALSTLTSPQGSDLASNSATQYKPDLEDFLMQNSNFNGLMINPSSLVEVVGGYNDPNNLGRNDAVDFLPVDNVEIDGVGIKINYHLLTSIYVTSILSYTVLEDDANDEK

Sequence	PBM E-score
ACAGTGCT	-0.138
CGCTCGCC	0.0992
AGTCTCCA	-0.219
CTCCGCGA	0.264
GCTCAAGA	-0.171
CTGTATTC	0.0691
GGTGTGTA	-0.17
CCGATGAG	0.23
CCGAATCC	0.338
CCATTGCC	0.0075
ACCATGAT	-0.0493
CTAGTCAA	-0.145
CGGCCAAG	0.195
GGGTAGAC	0.0798
TTGGCAAA	-0.148
CTCTTGCA	-0.0981
TAATGGCA	-0.151
ATCTCACC	0.0112
ACATCCTC	-0.00209
ACCTTGAC	-0.0897
AAAGCGCC	0.17
CGTTCCTA	-0.0471
AAATGAAT	-0.213
AGATAATA	-0.0137
AGAGAAAT	-0.0325

Sequence	PBM E-score
AAACGTGG	-0.16
GAGGTGCA	0.0507
CGACTATA	-0.0251
CTATCCAC	-0.0523
AGCCCTAA	0.0359
ACACACGA	-0.175
ACTGGATC	-0.0304
ATACTGCA	0.175
CGCCACTC	0.121
CAGATCAG	-0.123
CTTATATC	0.21
AGGATAGA	-0.187
CCTAATCA	-0.0052
AGATCCCC	0.087
CTCTTAAA	0.0174
ATGGCATA	-0.145
AGTCTCGG	0.303
AGCCCATG	-0.177
AAGGCTCT	-0.0279
CACTCACC	-0.0448
AGAAGAAT	-0.034
AGTCCCCC	-0.24
ATGTCCCC	0.0493
ATTACTTC	0.00222
CCTTTGGA	-0.215

Sequence	PBM E-score
TTCGAAAA	-0.15
AGGATGAG	-0.3
TAGCAGAA	-0.122
ATTTAGCA	-0.12
ACGTGGAA	-0.0358
CCTCTGGC	-0.0177
AGGGAGAC	-0.122
ATACTCCC	0.115
AAGTAGTA	-0.111
ACCAAGAA	-0.117
CGCGAATC	-0.0268
GTGCTACA	-0.335
CATCTGCA	-0.0977
GGATCCCC	0.249
CTTGGCCC	-0.219
GTTGCCCA	0.00024
AGCTTGTG	-0.21
GGGCTAAC	-0.0168
AACTCATC	-0.0345
CGGCGTGC	0.133
CCGTTCAA	0.19
AACGGAAG	0.186
GTAATCCA	0.00769
AGAATCAA	-0.12
CCGAAACC	0.298

Sequence	PBM E-score
ACTCCATG	0.046
CACGCTAG	-0.217
AACACTGA	-0.0739
GCAGAGCC	-0.00883
CTATTGCC	0.145
GAGTGGGC	0.00462
AATTCTGC	-0.0329
AAGCGGCG	0.116
TACATCAA	-0.0848
AGATTTGG	-0.187
CCGACTCG	0.24
CACAACCA	-0.00097
AACTGTAG	-0.314
AAGTATCC	-0.0191
CGGACACG	0.358
AAATACAA	-0.0957
CGGGGGTC	0.19
CACTTCGC	-0.198
GCCTGTAC	-0.0226
CGACGAGA	-0.0197
CCGGCTCG	0.352
GGGAACCC	0.0724
CATGAAAA	-0.261
AACAGAGA	-0.0674
ATGGGGCC	-0.141

Sequence	PBM E-score
CTATGTTC	0.0312
AATAGTAT	0.103
CAATGAAG	-0.149
CCATCAAC	-0.236
GCCAGCGA	-0.205
AGACCACT	-0.163
AATAAGTC	-0.196
ACACTAGC	-0.0954
AACGGTTA	0.122
AACTTATT	0.157
GAGCTACC	-0.0568
GCTGTGCC	-0.0329
CCAATAAG	-0.286
TGCCCGAA	0.187
GAGAAGCC	0.152
ACGCCTTA	-0.275
GTATCCGA	0.304
CCACGGAA	0.348
GAAGTCGC	0.00691
CTTCATAA	-0.146
CCACTAGG	-0.312
AATACCGC	0.304
GGGTCCTA	-0.0923
ACTTCCAT	0.0711
CATTGACC	-0.0136

Sequence	PBM E-score
CGACAACA	0.0425
ATTTTCCA	-0.0537
GGTCGCAC	0.095
CGATTACC	0.269
AGGCTAAG	-0.138
AGACAAAT	-0.193
CTTCGCTA	-0.00511
TCAGAGAA	-0.316
ACCGTATC	0.073
CATATAAG	-0.0747
AGAGGATG	-0.069
AACACAGG	-0.207
CTAATGCC	0.215
GGTATCGA	0.00812
ACCTCACG	-0.144
CGTGAACC	0.0247
AGTTCGAA	-0.0481
CTTCGGTA	0.158
GCCTCTTA	-0.0682
GTAACAAA	0.00584
CACTGACC	0.133
CTCTCAAC	-0.118
ATTCAGTG	-0.00274
AGACTATC	-0.15
TAGGGAGA	-0.115

Sequence	PBM E-score
AGGCGTGC	-0.0618
ACAGTAGG	-0.195
AGCGCACG	0.0726
GAACACAA	-0.25
ATCGCGCA	-0.101
GTCATCAC	-0.249
AATATTAG	-0.0457
GCCTCTCC	-0.282
ATGCTGAA	-0.183
AAGCCATC	0.0118
ATTAGTTA	0.115
CAGCCGAC	0.183
TCCTTAGA	-0.257
CACGTCCA	-0.234
AGACCTGA	-0.0959
TGATATAA	-0.0236
ATCCCCTG	-0.324
ACTGCTTG	-0.109
ACTACAGA	-0.0671
CGTCAGTA	-0.104
AAAACGAG	-0.23
GAGGGAGC	-0.175
